Assay results reported in PubChem BioAssay AID1865 (National Center for Advancing Translational Sciences (NCATS), 2009).
The campaign covered roughly 280,000 compounds. About 540 (0.19%) were called active. This list was built around the results that the source calls inconclusive (neither active nor inactive); the mix of calls is not that of the screen. Calls come from the whole dose curve; as a rule, active = well fitted activation curve with a large enough effect; inconclusive = small, poorly fitted or top-dose-only effect; inactive = flat fitted curve, though single readings scatter. A potency beside an inconclusive call is a rough fit, not a confirmed value.

Test: Quantitative High-Throughput Screen for Regulators of Epigenetic Control; note: nearly all actives have a fitted effect of over 60% in size
Conditions: murine LDR cells, GFP reporter derepression, 30 h; series mostly up to 53.9 µM
Method in brief: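 Reporter derepression read as number of fluorescent GFP-positive objects, 20-120 um in size, counted by laser-scanning cytometer. Mouse LDR line with an epigenetically silenced CMV-GFP locus; compound incubation 30 h, 37 C.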
Potency is the fitted concentration of half-maximal effect; tags give direction and shape of the fitted curve.

SMILES | Potency
CCN1C(=O)/C(=C/c2ccc(N3CCCC3)cc2)NC1=S | inconclusive: 25.1 µM [activator, single point]
O=C(Oc1c(CN2CCOCC2)cc(Cl)c2cccnc12)c1ccccc1Cl | inconclusive: 31.6 µM [activator, single point]
O=C(COc1ccc2ccccc2c1)NNC(=O)Cc1ccccc1 | inactive
S=c1[nH]nc(COc2ccccc2)n1/N=C/C(Cl)=C/c1ccccc1 | inconclusive: 35.5 µM [activator, single point]
CCOC(=O)C1=C(O)/C(=C/c2cc(OC)c(O)c(OC)c2)SC1=Nc1ccc(OC)cc1 | inconclusive: 22.4 µM [activator, single point]
COC(=O)N1CC=CC1(C)C(=O)NCC1CC1 (configuration not stated) | inconclusive: 31.6 µM [activator, single point]
S=C(Nc1ccccc1Cl)N1CCCC(c2ccccc2)=N1 | inactive
Oc1ccccc1Nc1nc(NCc2ccccc2)c2ccccc2n1 | inactive
Cc1ccc(NC(=S)NC(=O)c2ccccc2)cc1NC(=S)NC(=O)c1ccccc1 | inconclusive: 35.5 µM [activator, single point]
Cc1ccccc1NC(=O)Cn1c(=O)n(Cc2ccc3c(c2)OCO3)c(=O)c2oc3ccccc3c21 | inconclusive: 3.16 µM [activator, full curve, poor fit]
CCN1C(=S)SC(=O)C1=C1C=C(C)OC(C)=C1 | inactive
CC(C)(C)C(=O)[C@H]1[C@H](c2ccccc2)[C@@]2(N=C(c3ccccc3)OC2=O)C2c3ccccc3C=NN21 (some centres not stated) | inconclusive: 35.5 µM [activator, single point]
Cc1ccc(-n2sc3ccccc3c2=O)cc1S(=O)(=O)N1CCCCC1 | inactive
CCN(Cc1ccc(OC)cc1)c1ccc(-c2nc(-c3ccncc3)no2)cc1[N+](=O)[O-] | inconclusive: 31.6 µM [activator, single point]
O=C1CC(c2ccccc2)Cc2[nH]c(=O)c(-c3nc(-c4cccc(Cl)c4)cs3)cc21 (configuration not stated) | inconclusive: 35.5 µM [activator, single point]
COc1ccc2nc(NS(=O)(=O)c3ccc(C)cc3)c(Nc3cc(Cl)ccc3OC)nc2c1 | active: 25.1 µM
CN(C(=O)c1cc2sccc2n1C)C1CCCCC1 | inactive
COc1ccc(C)cc1N(C)C(=O)c1sc2nc3n(c(=O)c2c1C)CCCCC3 | inconclusive: 12.6 µM [activator, partial curve]
CCOc1ccc(N2C(=O)/C(=C/c3ccc(C)o3)N(C)C2=S)cc1 | inconclusive: 31.6 µM [activator, single point]
O=C(/C=C/c1ccco1)N1CCC(Cc2ccccc2)CC1 | inconclusive: 20 µM [activator, single point]
CCN(CC)c1ccc2cc(-c3nnc(-c4cccc(Cl)c4)o3)c(=O)oc2c1 | inconclusive: 7.94 µM [activator, partial curve]

SMILES | Potency
Cc1ccc(C(=O)c2oc3ccccc3c2NC(=O)c2nc(S(C)(=O)=O)ncc2Cl)cc1F | inconclusive: 4.47 µM [activator, single point]
CCC(Cn1nnc2ccccc2c1=O)NC(=O)Nc1cc(Cl)ccc1OC (configuration not stated) | inconclusive: 28.2 µM [activator, single point]
Cc1ccc(C(=O)N/C(=C\c2ccc(-c3ccc([N+](=O)[O-])cc3)o2)C(=O)NC2CCS(=O)(=O)C2)cc1 (configuration not stated) | inconclusive: 31.6 µM [activator, single point]
Cc1cccc(OCC(=O)Nc2ccc(C(=O)NCc3cccnc3)cc2)c1 | inactive
CCCN(CCC)CC(O)Cn1cc(/C=C/C(=O)c2cccs2)c2ccccc21 (configuration not stated) | inconclusive: 31.6 µM [activator, single point]
CCOC(=O)c1cc(CC)sc1NC(=O)c1ccc([N+](=O)[O-])c(N2CCOCC2)c1 | inconclusive: 5.62 µM [activator, single point]
Cn1cnc([N+](=O)[O-])c1S(=O)(=O)c1cccc(Cl)c1 | inconclusive: 5.62 µM [activator, single point]
Cc1ccc2oc(=O)n(CCNC(=O)Nc3ccccc3Cl)c2c1 | inactive
COC(=O)Nc1sccc1C(=O)Nc1sccc1C(=O)OC | inconclusive: 28.2 µM [activator, single point]
C/C(CCc1ccc2c(c1)OCO2)=N\NC(=S)NC(C)C | inconclusive: 22.4 µM [activator, single point]
O=C(COC(=O)c1ccccc1Br)NCCC1=CCCCC1 | inconclusive: 6.31 µM [activator, single point]
COCCNC(=O)/C(C#N)=C/c1cccc(/C=C(\C#N)C(=O)NCCOC)c1 | inconclusive: 31.6 µM [activator, single point]
C/C(=N\NC(=O)c1c[nH]c2ccccc12)c1ccccn1 | inconclusive: 6.31 µM [activator, single point]
C#CCn1cc(/C=N/NC(=O)COc2cccc3cccnc23)c2ccccc21 | inactive
CC(C)c1ccc(NC(=O)C2CCCN(S(=O)(=O)c3cccc4nonc34)C2)cc1 (configuration not stated) | inconclusive: 31.6 µM [activator, single point]
COc1ccc(C2NC(=O)C(C#N)=C(S)N2c2ccc(C)cc2)cc1OC (configuration not stated) | inconclusive: 31.6 µM [activator, single point]
CCOc1ccc(CCNS(=O)(=O)c2c(C)nc3sc(C)cn3c2=O)cc1OCC | inactive
Fc1ccccc1COc1ccccc1/C=N/Nc1nc(N2CCCC2)nc(N2CCCC2)n1 | inactive
Cc1cnc(Nc2nc3ccccc3o2)nc1C(=O)Nc1cccc(C(F)(F)F)c1 | inconclusive: 3.55 µM [activator, single point]
O=S(=O)(NCc1cccnc1)c1cccs1 | inconclusive: 2 µM [activator, partial curve]
N#Cc1ccccc1Cn1nnc2c(=O)[nH]c(C3CCCN(S(=O)(=O)c4ccc(F)cc4)C3)nc21 (configuration not stated) | inconclusive: 35.5 µM [activator, single point]
